Measured values from PubChem BioAssay AID1347073 (National Center for Advancing Translational Sciences (NCATS), 2019).
Screen size: about 45,000 compounds; about 200 (0.44%) were called active. Inconclusive results (about 7%) are left out. Calls follow the shape of the dose curve; as a rule, active = well fitted activation curve with a large enough effect; inconclusive = small, poorly fitted or top-dose-only effect; inactive = no such curve, though single readings can be large or run the other way. This is one part of the list.

Test: qHTS of TDP-43 Inhibitors: NCGC Sytravon Library Screen; also: 0% is about no effect; nearly all actives have a fitted effect of over 55% in size
Settings: yeast TDP-43 toxicity rescue, BacTiter-Glo growth, 24 h; series mostly up to 46.1 µM; growth rescue (activation): at the top concentration
Text: The goal of this project is to identify new chemical probes capable of reversing the toxicity associated with TDP-43 which is associated with frontotemporal lobar degeneration and amyotrophic lateral sclerosis. These compounds will provide a complementary approach to deciphering the tangled mechanisms of toxicity and protection that we have uncovered through genome-wide genetic screens and are beginning to uncover in a large-scale proteomics analysis with mass spectroscopy. To this end, a miniaturized assay was developed to be screened against the Molecular Libraries Small Molecule Repository (MLSMR) to discover TDP-43 inhibitors. Please note that in the set-up this yeast-based assay compounds that inhibit as TDP-43, have a read-out as activators. NIH Chemical Genomics Center [NCGC] NIH Molecular Libraries Probe Centers Network [MLPCN] Assay Submitter (PI): Susan Lindquist, Whitehead Institute/MIT MLPCN Grant: R21 NS060957
Dispense 2.5 microL yeast galactose medium per 1536-well plate, pin compound, dispense 2.5 microL TDP-43 expressing yeast in galactose medium at OD600=0.02 (pregrown in raffinose medium to mid-log phase) per well, incubate for 24 hr at 30 deg C, and cell growth will be measured using 5 microL of Bactiter/Glo reagent to entire plate and read using Luminescence Protocol in ViewLux.

Structure (SMILES) | growth rescue (activation)
Cc1c(CC(=O)O)c(=O)oc2c(C)c3occ(-c4ccc(Br)cc4)c3cc12 | inactive: 6.15%
